In paper PMC3610741:
Results are given in words; binding and its absence hold for the method and conditions named. Binding seen in cells or lysates may run through a third protein. Some entries that bind do so weakly or less than the wild type.

Chains of the proteins cited; added tags and fusions are not shown. Lines headed by an entry give the natural chain unless they say otherwise; changes in a name come on top. A line that says so, or that is headed by a name, gives the form on record, which may keep a tag or linker. Residues count along the entry.
UniProt Q4VSI4: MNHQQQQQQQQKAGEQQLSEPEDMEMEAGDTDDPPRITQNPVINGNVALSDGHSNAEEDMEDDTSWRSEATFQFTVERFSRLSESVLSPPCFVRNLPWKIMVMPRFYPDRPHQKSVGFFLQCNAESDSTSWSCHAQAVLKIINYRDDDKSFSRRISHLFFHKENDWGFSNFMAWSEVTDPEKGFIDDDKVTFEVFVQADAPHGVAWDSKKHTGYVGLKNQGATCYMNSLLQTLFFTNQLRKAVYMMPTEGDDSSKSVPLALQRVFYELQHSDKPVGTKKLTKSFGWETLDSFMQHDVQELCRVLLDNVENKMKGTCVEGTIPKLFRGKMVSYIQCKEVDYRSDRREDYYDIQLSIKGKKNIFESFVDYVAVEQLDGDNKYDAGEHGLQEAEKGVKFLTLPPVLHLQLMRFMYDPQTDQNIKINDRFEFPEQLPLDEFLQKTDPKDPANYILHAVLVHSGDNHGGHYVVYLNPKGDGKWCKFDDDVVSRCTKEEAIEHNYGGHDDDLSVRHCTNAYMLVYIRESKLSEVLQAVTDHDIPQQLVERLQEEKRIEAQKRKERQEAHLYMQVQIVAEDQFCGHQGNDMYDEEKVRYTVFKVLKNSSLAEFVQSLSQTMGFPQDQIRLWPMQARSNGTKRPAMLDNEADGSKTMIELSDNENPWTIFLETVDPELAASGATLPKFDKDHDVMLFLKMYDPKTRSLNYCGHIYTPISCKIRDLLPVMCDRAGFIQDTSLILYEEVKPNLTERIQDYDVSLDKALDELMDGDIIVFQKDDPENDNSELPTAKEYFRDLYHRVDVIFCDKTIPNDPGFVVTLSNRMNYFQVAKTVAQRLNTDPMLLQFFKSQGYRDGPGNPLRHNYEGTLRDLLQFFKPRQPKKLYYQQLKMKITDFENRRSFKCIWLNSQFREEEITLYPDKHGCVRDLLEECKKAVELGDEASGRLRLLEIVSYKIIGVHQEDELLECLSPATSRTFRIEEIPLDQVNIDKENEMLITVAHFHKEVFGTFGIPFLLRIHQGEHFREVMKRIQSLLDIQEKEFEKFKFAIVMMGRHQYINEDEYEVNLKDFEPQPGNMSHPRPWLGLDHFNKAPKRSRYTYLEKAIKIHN
UniProt Q93009: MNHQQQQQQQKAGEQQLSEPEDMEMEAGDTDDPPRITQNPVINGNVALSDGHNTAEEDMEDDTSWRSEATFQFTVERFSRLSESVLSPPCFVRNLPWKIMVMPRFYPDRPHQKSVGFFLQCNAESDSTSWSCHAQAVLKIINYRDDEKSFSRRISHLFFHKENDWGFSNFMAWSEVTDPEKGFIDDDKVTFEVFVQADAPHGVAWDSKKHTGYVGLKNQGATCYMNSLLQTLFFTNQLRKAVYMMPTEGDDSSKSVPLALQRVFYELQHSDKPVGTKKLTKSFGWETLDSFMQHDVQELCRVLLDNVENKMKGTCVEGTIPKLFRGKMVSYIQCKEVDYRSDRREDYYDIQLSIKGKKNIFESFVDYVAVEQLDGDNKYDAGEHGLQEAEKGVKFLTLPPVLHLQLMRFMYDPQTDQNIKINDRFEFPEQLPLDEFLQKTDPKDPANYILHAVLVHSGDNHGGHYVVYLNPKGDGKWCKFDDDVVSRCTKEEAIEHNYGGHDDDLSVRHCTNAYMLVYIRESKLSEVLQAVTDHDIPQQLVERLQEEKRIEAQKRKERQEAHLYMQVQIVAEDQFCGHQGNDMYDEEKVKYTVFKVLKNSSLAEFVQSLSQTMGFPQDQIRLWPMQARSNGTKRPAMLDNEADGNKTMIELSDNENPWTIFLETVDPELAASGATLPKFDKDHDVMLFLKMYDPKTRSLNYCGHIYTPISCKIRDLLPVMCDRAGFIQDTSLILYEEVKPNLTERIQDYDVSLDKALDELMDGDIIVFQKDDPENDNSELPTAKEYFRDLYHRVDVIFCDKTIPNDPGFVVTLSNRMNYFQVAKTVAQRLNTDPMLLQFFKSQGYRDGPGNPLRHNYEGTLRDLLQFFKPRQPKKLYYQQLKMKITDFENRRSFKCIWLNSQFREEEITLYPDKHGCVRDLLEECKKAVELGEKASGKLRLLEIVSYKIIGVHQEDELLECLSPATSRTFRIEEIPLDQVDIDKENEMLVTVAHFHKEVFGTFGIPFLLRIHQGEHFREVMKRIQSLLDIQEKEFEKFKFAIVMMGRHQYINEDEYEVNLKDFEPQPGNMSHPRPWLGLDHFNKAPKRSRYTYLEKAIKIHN
GST fused USP7 N-terminal segment (TD, residues 1–215): residues 1-215 of Q93009
GST fused USP7 central catalytic domain (CD): residues 208-560 of Q93009
GST fused USP7 C-terminal structural domain C1: residues 600-870 of Q93009
GST fused USP7 C-terminal structural domain C2: residues 885-1061 of Q93009

How the values were obtained:
[1] = target: USP7 endogenous in Brk1 rat cells (rat (endogenous in Brk1)) (UniProt Q4VSI4); assay: co-IP; USP7 precipitated with the USP7 antibody 6E6 or 3D8 (control IgG2a) from lysates of transfected H1299, infected A549 and H1299 (MOI 20, 24 h p.i.) or transfected Brk1 cells; E1B-55K detected by immunoblot; in one panel H1299 cells untreated or treated with DMSO or HBX (3 µM), co-precipitate reduced after HBX
[2] = target: Ubiquitin-specific protease 7 (USP7), cellular, endogenous in human cells (human (endogenous in H1299 and A549)) (UniProt Q93009); assay: as above
[3] = target: GST fused USP7 C-terminal structural domain C1 (human) (UniProt Q93009); assay: pull-down; GST fused USP7 segments on Glutathione Sepharose incubated with HAdV5 wt (H5pg4100)-infected H1299 cell extracts prepared at 48 h p.i., 2 h at 4°C; E1B-55K detected by immunoblot; only the target purified
[4] = target: GST fused USP7 N-terminal segment (TD, residues 1–215) (human) (UniProt Q93009); assay: as above
[5] = target: GST fused USP7 central catalytic domain (CD) (human) (UniProt Q93009); assay: as above
[6] = target: GST fused USP7 C-terminal structural domain C2 (human) (UniProt Q93009); assay: as above
[7] = target: GST fusion protein E1B 1–162 (human adenovirus type 5 (HAdV5)) (UniProt P03243); assay: pull-down; GST fusions of E1B-55K and its variants immobilized to Glutathione-sepharose beads, incubated with extracts of H1299 cells for 2 h at 4°C, washed six times; USP7 detected by immunoblot; only the target purified
[8] = target: GST fused full-length HAdV5 E1B-55K (human adenovirus type 5 (HAdV5)) (UniProt P03243); assay: as above

## E1B-55K expressed in E1B-plasmid transfected Brk1 rat cells (from UniProt P03243 1-496)
[1]
  binding: binds

## HAdV5 E1B-55K protein from wt virus (H5pg4100) infected cells (from UniProt P03243 1-496)
[2]
  binding: binds
[3]
  binding: no binding
[4]
  binding: binds
[5]
  binding: no binding
[6]
  binding: no binding

## Ubiquitin-specific protease 7 (USP7), cellular, endogenous in human cells (from UniProt Q93009-1 1-1102) (enzyme)
[7]
  binding: binds
[8]
  binding: binds

## wt E1B-55K expressed from plasmid pE1B-55K in H1299 cells (from UniProt P03243 1-496)
[2]
  binding: binds
